Experiment [1] relates to HSkMC (human skeletal muscle cells). The experiment can be described thus: cytotoxicity call (relative viability < 0.9). The note with it: 10 µM.
The subject of experiment [2] is HepG2. The experiment can be described thus: cytotoxicity call (relative viability < 0.9). Conditions: 10 µM.
Experiment [3] relates to S. aureus RN4220. The experiment can be described thus: growth inhibition call (relative growth <= 0.2). The note with it: 50 µM.

Each structure is given as a SMILES string. The list shows a part of the results.

As for `Cc1coc(C)c1C(=O)O[C@@H]1O[C@@H](C)[C@H](O)[C@@H](O)[C@H]1O`, the cytotoxicity call in experiment [1] and in experiment [2] was “active” in each case. For the same compound, the growth inhibition call in experiment [3] is “inactive”.
Regarding `Cc1ccc(-c2cnc3c(c2)C(=O)N([C@H](C)CO)C[C@H](C)[C@H](CN(C)C(=O)Cc2ccncc2)O3)cc1`, the cytotoxicity call in experiment [1] and in experiment [2] was “inactive” in each case. Also, the growth inhibition call in experiment [3] was “inactive”.
`COc1ccc(S(=O)(=O)Nc2ccc3c(c2)C(=O)N([C@H](C)CO)C[C@H](C)[C@H](CN(C)Cc2ccccc2)OCCCC[C@H](C)O3)cc1`: the cytotoxicity call in experiment [1] and in experiment [2] was “inactive” throughout. Moreover, in experiment [3], the growth inhibition call is “inactive”.
As for `C[C@@H]1CN([C@H](C)CO)C(=O)c2cc(NC(=O)Nc3ccc4c(c3)OCO4)ccc2O[C@@H](C)CCCCO[C@@H]1CN(C)Cc1ccccc1`, the cytotoxicity call in experiment [1] and in experiment [2] was “inactive” in each case. Also, the growth inhibition call in experiment [3] was “inactive”.
As for `COC(=O)C1=C2CC[C@H](COC(=O)NCCCCCC(=O)NO)NC(=O)N[C@@H](Cc3ccccc3)c3cn(nn3)C[C@@H](Cc3ccccc3)NC(=O)c3oc(c(C(=O)OC)c3C(=O)OC)CC[C@H](COC(=O)NCCCCCC(=O)NO)NC(=O)N[C@@H](Cc3ccccc3)c3cn(nn3)C[C@@H](Cc3ccccc3)NC(=O)C(=C1C(=O)OC)O2`, the cytotoxicity call in experiment [1] and in experiment [2] was “inactive” in each case. For the same compound, in experiment [3], the growth inhibition call is “inactive”.
For the compound `C[C@H]1CN([C@@H](C)CO)C(=O)Cc2cc(NS(=O)(=O)c3cn(C)cn3)ccc2O[C@H]1CN(C)Cc1ccc(C(=O)O)cc1`, the cytotoxicity call in experiment [1] and in experiment [2] was “inactive” throughout. Further, the growth inhibition call in experiment [3] was “inactive”.
Regarding `NCCONC(=O)[C@@H]1CC[C@@H]2CN1C(=O)N2OS(=O)(=O)O`, the cytotoxicity call in experiment [1] and in experiment [2] was “inactive” throughout. In addition, in experiment [3], the growth inhibition call was “inactive”.
As for `CC(C)C#Cc1ccc2c(c1)O[C@@H](CN(C)C(=O)Cc1ccccn1)[C@H](C)CN([C@H](C)CO)S2(=O)=O`, the cytotoxicity call in experiment [1] and in experiment [2] was “inactive” throughout. In addition, the growth inhibition call in experiment [3] is “inactive”.
For `COc1ccccc1NC(=O)N(C)C[C@@H]1OCc2ccccc2-c2c(n(C)c3ccccc23)C(=O)N([C@@H](C)CO)C[C@H]1C`, the cytotoxicity call in experiment [1] and in experiment [2] was “inactive” in each case. For the same compound, the growth inhibition call in experiment [3] is “inactive”.
With `CN(C)CC(=O)N[C@@H]1CC[C@@H](CCNS(=O)(=O)c2ccccc2)O[C@@H]1CO`, in experiment [1], the cytotoxicity call was “inactive”. Moreover, the cytotoxicity call in experiment [2] is “active”. Besides, the growth inhibition call in experiment [3] was “inactive”.
As to `COc1cc(CO)cc(I)c1O[C@H]1C=C(C(=O)NCCO)C[C@@H](NCc2ccccc2F)[C@@H]1O`, the cytotoxicity call in experiment [1] and in experiment [2] was “inactive” each time. Moreover, in experiment [3], the growth inhibition call was “inactive”.
Turning to `COc1ccc(OCc2c(-c3ccccc3)nnn2CC(=O)NS(=O)(=O)c2cccc(C#N)c2)cc1`, the cytotoxicity call in experiment [1] and in experiment [2] was “inactive” each time. Besides, in experiment [3], the growth inhibition call was “inactive”.
Consider `C[C@H]1CCCCO[C@H](CN(C)Cc2ccccc2)[C@@H](C)CN([C@@H](C)CO)C(=O)c2cc(NS(=O)(=O)c3ccc(F)cc3)ccc2O1`, for which the cytotoxicity call in experiment [1] and in experiment [2] was “inactive” throughout. Moreover, the growth inhibition call in experiment [3] was “inactive”.
On to `O=C(CCCCC(=O)N/N=C/[C@H](O)[C@@H](O)[C@@H](O)[C@H](O)CO)NO`, for which the cytotoxicity call in experiment [1] and in experiment [2] was “inactive” in each case. The growth inhibition call in experiment [3] is “inactive”.
On to `C[C@@H]1CCCCO[C@H](CN(C)Cc2ccc3c(c2)OCO3)[C@H](C)CN([C@@H](C)CO)C(=O)c2cc(NS(=O)(=O)c3cccs3)ccc2O1`, for which the cytotoxicity call in experiment [1] and in experiment [2] was “inactive” in each case. The growth inhibition call in experiment [3] was “inactive”.
Regarding `CC(C)NC(=O)N(C)C[C@@H]1Oc2ccc(NC(=O)Cc3ccccc3)cc2C(=O)N([C@H](C)CO)C[C@H]1C`, the cytotoxicity call in experiment [1] and in experiment [2] was “inactive” each time. In addition, the growth inhibition call in experiment [3] is “inactive”.
Regarding `C=CCOC(=O)[C@@H]1[C@H]2C(=O)O[C@H](c3ccccc3)[C@H](c3ccccc3)N2[C@H](c2ccc(OCCOC(=O)[C@@H]3C[C@@H]4C(=O)NCC(=O)N4[C@@H]3c3cccc(OCCO)c3)cc2)[C@@]12C(=O)Nc1ccccc12`, the cytotoxicity call in experiment [1] and in experiment [2] was “inactive” in each case. For the same compound, the growth inhibition call in experiment [3] is “inactive”.
On to `O=C1O[C@@H](c2ccccc2)[C@@H](c2ccccc2)N2[C@@H](c3ccc(O)cc3)[C@]3(C(=O)Nc4ccccc43)[C@@H](C(=O)N3CCCCCCC3)[C@H]12`, for which the cytotoxicity call in experiment [1] and in experiment [2] was “inactive” in each case. Further, in experiment [3], the growth inhibition call is “inactive”.
Regarding `CCCNC(=O)N(C)C[C@H]1Oc2cc(C#Cc3cccc(F)c3)ccc2S(=O)(=O)N([C@@H](C)CO)C[C@@H]1C`, the cytotoxicity call in experiment [1] and in experiment [2] was “inactive” in each case. The growth inhibition call in experiment [3] was “inactive”.
Consider `COc1ccc(C#Cc2cccc(-c3nc(C(=O)N[C@@H]4CCN(Cc5ccccc5)C4)cc4c3[C@H](CCO)N(S(=O)C(C)(C)C)C4)c2)cc1OC` (stereo partly drawn), for which the cytotoxicity call in experiment [1] and in experiment [2] was “inactive” throughout. In addition, in experiment [3], the growth inhibition call is “inactive”.
For `Cc1noc(C)c1NC(=O)N(C)C[C@H]1OCCCC[C@H](C)Oc2ccc(NC(=O)Nc3ccc(F)cc3)cc2C(=O)N([C@@H](C)CO)C[C@@H]1C`, the cytotoxicity call in experiment [1] and in experiment [2] was “inactive” in each case. Besides, the growth inhibition call in experiment [3] was “inactive”.
As to `COc1ccc(CCN2C(=O)[C@@]3(Cc4ccccc42)c2ccccc2C(=O)N(C2CCCCC2)[C@H]3c2ccc(CO)cc2)cc1`, the cytotoxicity call in experiment [1] and in experiment [2] was “inactive” in each case. Moreover, the growth inhibition call in experiment [3] is “inactive”.
Consider `C[C@@H]1CCCCO[C@@H](CN(C)Cc2ccccc2)[C@H](C)CN([C@H](C)CO)C(=O)c2cc(NC(=O)c3ccncc3)ccc2O1`, for which the cytotoxicity call in experiment [1] and in experiment [2] was “inactive” in each case. Further, in experiment [3], the growth inhibition call was “inactive”.
On to `C[C@@H]1CN([C@@H](C)CO)C(=O)c2cc(NC(=O)Nc3ccccc3)ccc2O[C@@H](C)CCCCO[C@H]1CN(C)C(=O)Nc1ccc(C(F)(F)F)cc1`, for which the cytotoxicity call in experiment [1] and in experiment [2] was “inactive” in each case. For the same compound, the growth inhibition call in experiment [3] is “inactive”.
For the compound `C[C@H]1CN([C@@H](C)CO)S(=O)(=O)c2ccc(C3=CCCC3)cc2O[C@@H]1CN(C)C(=O)C1CCOCC1`, the cytotoxicity call in experiment [1] and in experiment [2] was “inactive” throughout. Besides, in experiment [3], the growth inhibition call was “inactive”.
Take `C[C@@H]1CN([C@H](C)CO)C(=O)c2cc(NC(=O)Nc3ccc(C(F)(F)F)cc3)ccc2O[C@@H](C)CCCCO[C@@H]1CN(C)S(=O)(=O)c1cccs1`: the cytotoxicity call in experiment [1] and in experiment [2] was “inactive” each time. The growth inhibition call in experiment [3] was “inactive”.
